This is an account of results in paper PMC12820563, “FoxP3 forms a head-to-head dimer in vivo and stabilizes its multimerization on adjacent microsatellites”.

This is one part of the list.

This assay has as its target T1, MBP-FoxP1dN (Mus musculus, UniProt P58462 326-579).
T1 sequence: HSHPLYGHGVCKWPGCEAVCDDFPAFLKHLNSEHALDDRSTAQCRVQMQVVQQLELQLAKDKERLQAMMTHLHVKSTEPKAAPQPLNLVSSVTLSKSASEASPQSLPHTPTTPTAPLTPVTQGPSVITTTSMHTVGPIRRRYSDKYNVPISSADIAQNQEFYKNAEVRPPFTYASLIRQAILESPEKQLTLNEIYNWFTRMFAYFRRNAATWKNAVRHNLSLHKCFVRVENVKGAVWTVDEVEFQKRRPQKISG
Kind of assay: PD-seq (MBP pull-down with sequencing); 20 mM Tris-HCl pH 7.5, 100 mM NaCl, 1.5 mM MgCl2, 0.4 uM protein, 0.1 uM dsDNA library, 30 min, room temperature, amylose pull-down; high values mean tight binding. Particulars: protein: recombinant; tags: His6-MBP; chain copies: 2; dsDNA, one strand shown. Put shortly: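 In Tris pH 7.5 buffer with NaCl and MgCl2, 0.4 µM His6-MBP-tagged mouse FoxP3 or FoxP1 fragment lacking the N-terminus, from E. coli, met 0.1 µM Klenow-filled double-stranded degenerate DNA library for 30 min at room temperature. Three washes on amylose resin followed capture of the complexes, then proteinase K release of DNA, PCR barcoding and Illumina sequencing. Binding is taken as pooled-replicate reads-per-million enrichment of pull-down relative to input.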
As to “GATGATTGTTCTCCCAGCTGATGAATTCTCAACATCGAGTAAACAAATTTTCCTAATCTTTCTGTTCAAGCGCCATCTAC”, the binding signal is 1.05 RPM ratio (pull-down/input). As for “GATGATTGTTCTCCCAGCTGATGAATTCAGTGATTCGAGTAAACAAATTTTCCTAATCTTTCTGTTCAAGCGCCATCTAC”, the figure is 0.979 RPM ratio (pull-down/input); as for “GATGATTGTTCTCCCAGCTGATGAATTTATAAATTCGAGTAAACAAATTTTCCTAATCTTTCTGTTCAAGCGCCATCTAC”, 1.14 RPM ratio (pull-down/input); as for “GATGATTGTTCTCCCAGCTGATGAATTGAAACAATCGAGTAAACAAATTTTCCTAATCTTTCTGTTCAAGCGCCATCTAC”, 1.6 RPM ratio (pull-down/input). For the sequence “GATGATTGTTCTCCCAGCTGATGAATTGGCCAACTCGAGTAAACAAATTTTCCTAATCTTTCTGTTCAAGCGCCATCTAC”, the binding signal is 0.833 RPM ratio (pull-down/input). With “GATGATTGTTCTCCCAGCTGATGAATTTCCACGTTCGAGTAAACAAATTTTCCTAATCTTTCTGTTCAAGCGCCATCTAC”, the binding signal is 0.88 RPM ratio (pull-down/input). In the case of “GATGATTGTTCTCCCAGCTGATGAATTTGATCCATCGAGTAAACAAATTTTCCTAATCTTTCTGTTCAAGCGCCATCTAC” it was 0.928 RPM ratio (pull-down/input); in that of “GATGATTGTTCTCCCAGCTGATGAATTGGAACTGTCGAGTAAACAAATTTTCCTAATCTTTCTGTTCAAGCGCCATCTAC”, 0.803 RPM ratio (pull-down/input). In the case of “GATGATTGTTCTCCCAGCTGATGAATTCATATTCTCGAGTAAACAAATTTTCCTAATCTTTCTGTTCAAGCGCCATCTAC”, the binding signal is 0.83 RPM ratio (pull-down/input).

Regarding “GATGATTGTTCTCCCAGCTGATGAATTACCGTCCTCGAGTAAACAAATTTTCCTAATCTTTCTGTTCAAGCGCCATCTAC”, the binding signal was 0.877 RPM ratio (pull-down/input). In the case of “GATGATTGTTCTCCCAGCTGATGAATTGTGGCACTCGAGTAAACAAATTTTCCTAATCTTTCTGTTCAAGCGCCATCTAC”, the binding signal is 1.22 RPM ratio (pull-down/input). As for “GATGATTGTTCTCCCAGCTGATGAATTACCTGTATCGAGTAAACAAATTTTCCTAATCTTTCTGTTCAAGCGCCATCTAC”, the figure is 1.16 RPM ratio (pull-down/input); as for “GATGATTGTTCTCCCAGCTGATGAATTCCAATTATCGAGTAAACAAATTTTCCTAATCTTTCTGTTCAAGCGCCATCTAC”, 1.07 RPM ratio (pull-down/input).

As for “GATGATTGTTCTCCCAGCTGATGAATTAGGACTCTCGAGTAAACAAATTTTCCTAATCTTTCTGTTCAAGCGCCATCTAC”, the binding signal is 0.792 RPM ratio (pull-down/input). In the case of “GATGATTGTTCTCCCAGCTGATGAATTTTTTGTTTCGAGTAAACAAATTTTCCTAATCTTTCTGTTCAAGCGCCATCTAC” it was 1.13 RPM ratio (pull-down/input); in that of “GATGATTGTTCTCCCAGCTGATGAATTACACTTGTCGAGTAAACAAATTTTCCTAATCTTTCTGTTCAAGCGCCATCTAC”, 1.17 RPM ratio (pull-down/input); in that of “GATGATTGTTCTCCCAGCTGATGAATTAGCCTAGTCGAGTAAACAAATTTTCCTAATCTTTCTGTTCAAGCGCCATCTAC”, 0.785 RPM ratio (pull-down/input). “GATGATTGTTCTCCCAGCTGATGAATTGACGGTATCGAGTAAACAAATTTTCCTAATCTTTCTGTTCAAGCGCCATCTAC”: the binding signal was 1.06 RPM ratio (pull-down/input).

Consider “GATGATTGTTCTCCCAGCTGATGAATTCGCTTGGTCGAGTAAACAAATTTTCCTAATCTTTCTGTTCAAGCGCCATCTAC”, for which the binding signal was 0.862 RPM ratio (pull-down/input). Consider “GATGATTGTTCTCCCAGCTGATGAATTCTTCCAATCGAGTAAACAAATTTTCCTAATCTTTCTGTTCAAGCGCCATCTAC”, for which the binding signal is 0.955 RPM ratio (pull-down/input). As for “GATGATTGTTCTCCCAGCTGATGAATTGTCAGAATCGAGTAAACAAATTTTCCTAATCTTTCTGTTCAAGCGCCATCTAC”, the figure is 1.07 RPM ratio (pull-down/input). As for “GATGATTGTTCTCCCAGCTGATGAATTACCCTCTTCGAGTAAACAAATTTTCCTAATCTTTCTGTTCAAGCGCCATCTAC”, the figure is 0.954 RPM ratio (pull-down/input); as for “GATGATTGTTCTCCCAGCTGATGAATTACGATCCTCGAGTAAACAAATTTTCCTAATCTTTCTGTTCAAGCGCCATCTAC”, 0.986 RPM ratio (pull-down/input). As for “GATGATTGTTCTCCCAGCTGATGAATTGCAACACTCGAGTAAACAAATTTTCCTAATCTTTCTGTTCAAGCGCCATCTAC”, the figure is 1.44 RPM ratio (pull-down/input); as for “GATGATTGTTCTCCCAGCTGATGAATTTAACATCTCGAGTAAACAAATTTTCCTAATCTTTCTGTTCAAGCGCCATCTAC”, 0.896 RPM ratio (pull-down/input). On to “GATGATTGTTCTCCCAGCTGATGAATTAGGATAGTCGAGTAAACAAATTTTCCTAATCTTTCTGTTCAAGCGCCATCTAC”, for which the binding signal is 0.902 RPM ratio (pull-down/input). For “GATGATTGTTCTCCCAGCTGATGAATTGACCCCATCGAGTAAACAAATTTTCCTAATCTTTCTGTTCAAGCGCCATCTAC”, the binding signal was 0.961 RPM ratio (pull-down/input). As for “GATGATTGTTCTCCCAGCTGATGAATTAGGACCGTCGAGTAAACAAATTTTCCTAATCTTTCTGTTCAAGCGCCATCTAC”, the figure is 0.839 RPM ratio (pull-down/input); as for “GATGATTGTTCTCCCAGCTGATGAATTATCAGTGTCGAGTAAACAAATTTTCCTAATCTTTCTGTTCAAGCGCCATCTAC”, 1.06 RPM ratio (pull-down/input).

On to “GATGATTGTTCTCCCAGCTGATGAATTCATGCAGTCGAGTAAACAAATTTTCCTAATCTTTCTGTTCAAGCGCCATCTAC”, for which the binding signal was 1.02 RPM ratio (pull-down/input). As for “GATGATTGTTCTCCCAGCTGATGAATTAGAGGAATCGAGTAAACAAATTTTCCTAATCTTTCTGTTCAAGCGCCATCTAC”, the figure is 0.902 RPM ratio (pull-down/input).

Turning to “GATGATTGTTCTCCCAGCTGATGAATTAGACGTTTCGAGTAAACAAATTTTCCTAATCTTTCTGTTCAAGCGCCATCTAC”, the binding signal was 0.937 RPM ratio (pull-down/input).
